Out of some 310,000 compounds screened, about 2,200 (0.71%) showed an effect of 50% or more. The effect is printed as a negative number. Some of the results follow.

The test deals with human ether-à-go-go-related gene (hERG) potassium channel (human, UniProt Q12809). The experiment in a line: primary screen, population patch clamp on CHO cells stably expressing hERG.
Chain of human ether-à-go-go-related gene (hERG) potassium channel (Q12809 whole entry, looked up): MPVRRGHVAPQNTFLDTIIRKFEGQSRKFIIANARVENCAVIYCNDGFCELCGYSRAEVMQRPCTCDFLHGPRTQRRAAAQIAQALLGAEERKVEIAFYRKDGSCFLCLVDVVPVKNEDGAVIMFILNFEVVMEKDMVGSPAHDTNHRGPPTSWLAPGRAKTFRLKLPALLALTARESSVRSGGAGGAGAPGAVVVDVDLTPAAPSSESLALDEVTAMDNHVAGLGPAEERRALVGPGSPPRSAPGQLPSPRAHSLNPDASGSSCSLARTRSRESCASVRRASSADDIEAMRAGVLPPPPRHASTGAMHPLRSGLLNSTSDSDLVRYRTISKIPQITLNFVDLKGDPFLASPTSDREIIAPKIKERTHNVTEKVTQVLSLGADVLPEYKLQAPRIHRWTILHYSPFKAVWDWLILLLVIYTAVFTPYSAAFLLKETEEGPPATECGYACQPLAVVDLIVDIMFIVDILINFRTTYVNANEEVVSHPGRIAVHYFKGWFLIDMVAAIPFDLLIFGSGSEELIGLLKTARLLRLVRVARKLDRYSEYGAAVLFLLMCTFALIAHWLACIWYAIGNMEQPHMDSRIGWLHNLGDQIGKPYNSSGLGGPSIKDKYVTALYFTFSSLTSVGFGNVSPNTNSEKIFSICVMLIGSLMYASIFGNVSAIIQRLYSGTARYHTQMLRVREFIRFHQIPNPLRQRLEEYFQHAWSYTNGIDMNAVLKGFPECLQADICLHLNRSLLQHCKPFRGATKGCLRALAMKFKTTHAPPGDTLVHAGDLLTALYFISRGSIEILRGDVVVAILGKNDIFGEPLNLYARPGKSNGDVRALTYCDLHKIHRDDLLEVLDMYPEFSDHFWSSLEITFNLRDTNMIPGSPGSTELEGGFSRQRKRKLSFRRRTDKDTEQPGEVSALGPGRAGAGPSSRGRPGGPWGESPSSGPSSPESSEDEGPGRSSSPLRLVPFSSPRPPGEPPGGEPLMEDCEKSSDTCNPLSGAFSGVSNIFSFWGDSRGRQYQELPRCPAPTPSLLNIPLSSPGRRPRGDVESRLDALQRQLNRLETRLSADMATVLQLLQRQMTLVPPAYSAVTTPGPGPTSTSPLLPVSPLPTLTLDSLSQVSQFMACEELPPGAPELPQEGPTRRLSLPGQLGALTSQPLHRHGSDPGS
On to `Cc1ccc(S(=O)(=O)N(C)C)cc1NC(=O)CCc1c[nH]c2ccccc12`, for which the “hERG current change (%, negative = inhibition) at 1uM” value was found to be 7.93%.

For `CCOC(=O)N1CCN(Cc2nc(-c3ccc(Cl)cc3)no2)CC1`, the “hERG current change (%, negative = inhibition) at 1uM” value came to 4.38%.

On to `Cc1ccc(/C=N/NC(=O)c2nnn(-c3nonc3N)c2CN(C)C)s1`, for which the “hERG current change (%, negative = inhibition) at 1uM” value was determined as 9.54%.

For the molecule `COc1cnc(-c2ccccn2)nc1Oc1ccc(C(C)(C)C)cc1`, the “hERG current change (%, negative = inhibition) at 1uM” value came out at 18.1%.

As to `O=C(O)C1C2C=CC3(CN(Cc4ccccn4)C(=O)C13)O2` (stereo not drawn), the “hERG current change (%, negative = inhibition) at 1uM” value was 15.5%.

As for `COC(=O)C1=C(C)N(CCCCCC(=O)O)C(=O)NC1c1ccccc1` (stereo not drawn), the “hERG current change (%, negative = inhibition) at 1uM” value was determined as 2.67%.

Regarding `O=C(NC(=S)Nc1ccccc1N1CCCCC1)c1ccc(F)cc1`, the “hERG current change (%, negative = inhibition) at 1uM” value is recorded as 12.4%.

As for `Cc1c(OC(C)C(=O)NCCCN2CCCC2=O)ccc2c3c(c(=O)oc12)CCCC3` (stereo not drawn), the “hERG current change (%, negative = inhibition) at 1uM” value is recorded as 9.53%.

Take `COC(=O)c1cccc(NC(N)=S)c1`: the “hERG current change (%, negative = inhibition) at 1uM” value stood at 5.47%.

In the case of `CCOC(=O)c1ccccc1NC(=O)COC(=O)c1cc([N+](=O)[O-])ccc1N1CCOCC1`, the “hERG current change (%, negative = inhibition) at 1uM” value turned out to be 5.18%.

As for `COc1ccc(C(=O)Cc2ccc(F)cc2)c(OC)c1`, the “hERG current change (%, negative = inhibition) at 1uM” value is given as 14.2%.

For `Cc1cc(NS(=O)(=O)c2ccc(NC(=O)C(C)Oc3cc(C)c(Cl)c(C)c3)cc2)no1` (stereo not drawn), the “hERG current change (%, negative = inhibition) at 1uM” value is listed as -1.07%.

For `CCNC(=O)CC1C(=O)N(c2cccc(OC)c2)C(=O)N1CCOC` (stereo not drawn), the “hERG current change (%, negative = inhibition) at 1uM” value is on record as 12.5%.

For `CC(NCc1ccc(N(C)C)cc1)C1CC2CCC1C2.Cl` (stereo not drawn), the “hERG current change (%, negative = inhibition) at 1uM” value turned out to be 0.449%.

Turning to `Cc1ccc2nc(-c3cccnc3)cc(C(=O)Nc3ccc(F)cc3C)c2c1`, the “hERG current change (%, negative = inhibition) at 1uM” value was 12.6%.

As for `CC(CN1CCOCC1)OC(=O)C(C)(c1ccccc1)c1ccccc1` (stereo not drawn), the “hERG current change (%, negative = inhibition) at 1uM” value came out at 17.3%.

In the case of `O=C(O)CCNS(=O)(=O)c1ccc(Oc2ccccc2)cc1`, the “hERG current change (%, negative = inhibition) at 1uM” value was found to be 7.43%.

Take `CCOc1ccc2nc(NC(=O)CN3CCC(n4nnc5cc(C(F)(F)F)ccc54)CC3)sc2c1`: the “hERG current change (%, negative = inhibition) at 1uM” value is 5.58%.

For the molecule `Nc1c(-c2ccccc2)cnn1-c1cccc(C(F)(F)F)c1`, the “hERG current change (%, negative = inhibition) at 1uM” value was 4.48%.

For `Cc1cc(N2CCN(C)CC2)nc2ccc(NC(=O)CCC(=O)NCCCOC(C)C)cc12`, the “hERG current change (%, negative = inhibition) at 1uM” value came to 14%.

Turning to `Cc1ccc(C(=O)Nc2cc([N+](=O)[O-])ccc2F)s1`, the “hERG current change (%, negative = inhibition) at 1uM” value amounted to 4.56%.

As to `O=C1CC(c2ccccc2Cl)CC(O)=C1C=NCCCO` (stereo not drawn), the “hERG current change (%, negative = inhibition) at 1uM” value came out at 13.4%.

Turning to `c1ccc(C2OCC3(CO2)COC(c2ccccc2)OC3)cc1` (stereo not drawn), the “hERG current change (%, negative = inhibition) at 1uM” value came to 1.14%.

With `CN(C)c1ccc(/C=N\S(=O)(=O)c2ccccc2)cc1`, the “hERG current change (%, negative = inhibition) at 1uM” value is -7.39%.

For `Cc1ccc(C)c(C(=O)CSc2n[nH]c(-c3ccncc3)n2)c1`, the “hERG current change (%, negative = inhibition) at 1uM” value was determined as 6.64%.

As for `OCC[C@@H]1C[C@@H](O)[C@H](O)[C@@]2(CCCc3ccccc3O2)O1`, the “hERG current change (%, negative = inhibition) at 1uM” value stood at 10.2%.

Regarding `Cc1cccc(N(C)C(=O)c2cc(S(=O)(=O)N3CCCC3)cn2C)c1`, the “hERG current change (%, negative = inhibition) at 1uM” value is listed as 9.21%.

On to `CCOc1ccc(S(=O)(=O)n2cc(-c3ccccc3)c(N)n2)cc1`, for which the “hERG current change (%, negative = inhibition) at 1uM” value is 8.81%.

Take `O=C(NCc1ccco1)c1cc(S(=O)(=O)N2CCCCC2)ccc1Cl`: the “hERG current change (%, negative = inhibition) at 1uM” value is listed as -11.7%.

As for `CCOc1cccc(OCCOCCn2cnc3ccccc3c2=O)c1`, the “hERG current change (%, negative = inhibition) at 1uM” value is reported as 5.04%.

On to `O=S(=O)(NCCc1ccccn1)c1cc(Cl)cc(Cl)c1O`, for which the “hERG current change (%, negative = inhibition) at 1uM” value was found to be 0.753%.

With `Cc1nc2sc(C(c3ccco3)N3CCc4ccccc4C3)c(O)n2n1` (stereo not drawn), the “hERG current change (%, negative = inhibition) at 1uM” value is 11%.

Take `CCOC(=O)Cc1nnc(Nc2cccc(O)c2)c2ccccc12`: the “hERG current change (%, negative = inhibition) at 1uM” value is reported as -1.84%.

In the case of `COc1cccc(C2c3[nH]c4ccccc4c3C[C@H]3C(=O)N(c4ccccc4C(=O)N4CCCC4C(=O)O)C(=O)N23)c1` (stereo partly drawn), the “hERG current change (%, negative = inhibition) at 1uM” value came to 2.86%.

Regarding `O=C(CSc1nc2ccccc2c(=O)n1NC(=O)c1ccccc1)c1ccc(Cl)cc1`, the “hERG current change (%, negative = inhibition) at 1uM” value came to 1.44%.

Take `COc1cccc(N(C(=O)CS(=O)CC(=O)Nc2ccc(F)cc2)C(C(=O)NC2CCCCC2)c2cccs2)c1` (stereo not drawn): the “hERG current change (%, negative = inhibition) at 1uM” value stood at 16.5%.

For the molecule `O=C(OCc1ccccc1)C1=NNC2C(=O)N(Cc3ccccc3)C(=O)C12` (stereo not drawn), the “hERG current change (%, negative = inhibition) at 1uM” value stood at 15%.

Take `CCCn1c(=N)c(C(=O)NCc2ccc3c(c2)OCO3)cc2c(=O)n3cccc(C)c3nc21`: the “hERG current change (%, negative = inhibition) at 1uM” value was -67.3%.

In the case of `CCCCNC(=O)CCc1nc2cccnc2n1Cc1ccccc1`, the “hERG current change (%, negative = inhibition) at 1uM” value is -34.7%.

With `CCOC(=O)Cn1c(-c2cccnc2Cl)nc2cc(C)c(C)cc21`, the “hERG current change (%, negative = inhibition) at 1uM” value is given as -1.17%.

Regarding `CC1(C(=O)Nc2nnc(SCc3ccccc3)s2)Cc2ccccc2C(=O)O1` (stereo not drawn), the “hERG current change (%, negative = inhibition) at 1uM” value was -7.87%.

With `CC(=O)c1ccc(N=C2SCCCN2C(=O)C2CCCC2)cc1`, the “hERG current change (%, negative = inhibition) at 1uM” value amounted to 8.31%.

On to `CSc1nc(N)nc(SC2C=CCCC2)c1C#N` (stereo not drawn), for which the “hERG current change (%, negative = inhibition) at 1uM” value was 1.47%.

With `Cc1ccc(NCc2nnc(SCC(=O)N3CCCCC3)n2CC2CCCO2)c(C)c1` (stereo not drawn), the “hERG current change (%, negative = inhibition) at 1uM” value is given as 5.47%.

`Cc1cc(C)nc(N(C#N)Cc2ccc(Cl)cc2)n1`: the “hERG current change (%, negative = inhibition) at 1uM” value is reported as 4.06%.

For the origin of these results see publication PMC4336329 (PLoS ONE, 2015).
